Here are results for 47 molecules from PubChem BioAssay AID1508624 (National Center for Advancing Translational Sciences (NCATS), 2021).

Hit rate of the full screen: of about 48,000 compounds, about 120 (0.25%) were called active. Inconclusive results (about 4%) are left out. Calls follow the shape of the dose curve; as a rule, active = well fitted activation curve with a large enough effect; inconclusive = small, poorly fitted or top-dose-only effect, or another doubt; inactive = no such curve, though single readings can be large or run the other way. Some of the results follow.

A short description of this experiment: Primary qHTS for Identification of Small Molecule Activators of Huntingtin-Antisense Promoter Activity. Also: nearly all actives have a fitted effect of over 55% in size. The following applies: HEK293 HTT-AS promoter firefly luciferase reporter, 24 h; series mostly up to 57.5 µM; activity change, positive = activation: at the top concentration. An outline of the steps: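 HEK293 cells carrying firefly luciferase reporters were seeded at 2,500 per well in Opti-MEM and cultured for 24 h. They were then treated with compounds at up to 57.5 uM final for 24 h at 37 degrees C before Dual-Glo luminescence readout.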
In the case of `COc1ccc(-c2cn3c(n2)sc2cc(C(=O)NCc4ccccc4)ccc23)cc1`, the “activity change, positive = activation” value is inactive: -4.28%.

On to `Cc1ccc(CNc2c(C)c(C)nc3nncn23)cc1`, for which the “activity change, positive = activation” value was inactive: -52.2%.

For the molecule `COc1ccc(Cc2nc3ccc(C(=O)NCCc4ccc(Cl)cc4)cc3o2)cc1`, the “activity change, positive = activation” value was inactive: -5.48%.

On to `CCN(C(=O)CCS(=O)(=O)c1cc(Br)cc2c1N(C(=O)C1CC1)CC2)c1cccc(C)c1`, for which the “activity change, positive = activation” value is inactive: -3.37%.

As for `CCOCCCn1c(SCC(=O)Nc2ccccc2OC)nc2c(oc3ccccc32)c1=O`, the “activity change, positive = activation” value was inactive: -31.3%.

Take `Cc1ccc(C)c(C(=O)N2CCC(c3nc4c(nnn4Cc4ccccc4)c(=O)[nH]3)CC2)c1`: the “activity change, positive = activation” value was inactive: -13.3%.

For `COc1ccccc1C1=Nn2c(nc3sc(C(=O)Nc4ccccc4Cl)c(C)c3c2=O)SC1`, the “activity change, positive = activation” value is inactive: -14.6%.

With `CC(NC(=O)c1c(O)nc2ccccn2c1=O)c1ccccc1` (configuration not stated), the “activity change, positive = activation” value was inactive: -20.2%.

For the molecule `S=c1[nH]c2ccccc2s1`, the “activity change, positive = activation” value is inactive: -5.45% [at 116 µM, percent change from vehicle, -100% = no light].

In the case of `CCOc1ccccc1N1CC(c2nc3ccccc3n2CCCCOc2ccccc2)CC1=O` (configuration not stated), the “activity change, positive = activation” value is inactive: -9.89%.

As for `CCOc1ccc(Nc2oc(/C=C/c3cc(OC)c(OC)c(OC)c3)nc2C#N)cc1`, the “activity change, positive = activation” value was inactive: -9.29%.

In the case of `COc1ccc(NC(=O)CN(C)S(=O)(=O)c2cnc[nH]2)cc1`, the “activity change, positive = activation” value was inactive: -5.69%.

For `CCOc1ccc(NC(=O)CSc2nc3ccccc3c(=O)n2CCC(=O)NC2CCCCC2)cc1`, the “activity change, positive = activation” value was inactive: -7.32%.

On to `O=C(COC(=O)c1cc(-c2cccs2)nc2ccccc12)c1ccc(Cl)cc1`, for which the “activity change, positive = activation” value was inactive: 14.9%.

Consider `COc1cc(C(=O)NCCSc2c(C)[nH]c3ccccc23)cc(OC)c1OC`, for which the “activity change, positive = activation” value was inactive: -15.1%.

As for `O=C(NC1CC(=O)N(c2ccc(Cl)cc2)C1)C1CCCCC1` (configuration not stated), the “activity change, positive = activation” value was inactive: -15.4%.

For `COc1cccc(NS(=O)(=O)c2cc(-c3cnc(C4CC4)o3)ccc2C)c1`, the “activity change, positive = activation” value was inactive: -45.1%.

As for `COc1ccc(-c2noc(C3CC(=O)N(c4ccc5c(c4)OCCO5)C3)n2)c(OC)c1` (configuration not stated), the “activity change, positive = activation” value is inactive: -4.42%.

As to `O=C(O)CSc1nc2ccccc2nc1N1CCCCC1`, the “activity change, positive = activation” value is inactive: -25.4%.

Consider `COc1ccc(CCNC(=O)CSc2cn(CCNC(=O)c3ccc(OC)c(OC)c3)c3ccccc23)cc1OC`, for which the “activity change, positive = activation” value is inactive: -31.4%.

Regarding `COC(=O)c1c(NC(=O)/C(C#N)=C/c2ccc(OC)cc2)sc2c1C(C(=O)OC)CC2` (configuration not stated), the “activity change, positive = activation” value was inactive: -10.1%.

For the molecule `CCc1ccccc1NC(=O)[C@H](Cc1ccccc1)N1Cc2ccccc2C1=O`, the “activity change, positive = activation” value is inactive: -6.2%.

As for `CCc1ccc(-n2c(=O)c3ccc(C(=O)NCCc4ccccc4)cc3n(CC(N)=O)c2=O)cc1`, the “activity change, positive = activation” value was inactive: -27.2%.

For the molecule `CCCCOc1ccc(C(=O)NCC2(N3CCN(C)CC3)CCCCC2)cc1`, the “activity change, positive = activation” value was inactive: -10.5%.

Regarding `CCS(=O)(=O)N1CCc2cc(C(=O)Nc3ccc(C)c(Cl)c3)ccc21`, the “activity change, positive = activation” value was inactive: 12.2%.

Take `O=C(Nc1nnc(S(=O)(=O)N2CCOCC2)s1)c1cccc(F)c1`: the “activity change, positive = activation” value is inactive: 9.33%.

For the molecule `CCOC(=O)C1CCN(c2nc(-c3ccc(Br)cc3)nc3ccccc23)CC1`, the “activity change, positive = activation” value was inactive: -37%.

Take `CC(=O)c1cccc(NC(=O)C(Cc2ccccc2)NS(=O)(=O)c2ccc(Br)s2)c1` (configuration not stated): the “activity change, positive = activation” value was inactive: -9.55%.

With `O=C(Nc1ccc(Cl)cc1)N1CCC(CN2CCCC2)CC1`, the “activity change, positive = activation” value is inactive: -8.48%.

Consider `Cc1cccc(CCNC(=O)Cn2ncc3c(=O)oc4ccccc4c32)c1`, for which the “activity change, positive = activation” value was inactive: 1.55%.

Turning to `Cc1c2cnn(-c3ccccc3)c(=O)c2c(C)n1CC(=O)NCc1ccccc1Br`, the “activity change, positive = activation” value is inactive: -13.3%.

As for `Cc1ccc2c(c1)C(c1ccccc1)N(C(=O)c1ccc(OC(C)C)cc1)CC(=O)N2` (configuration not stated), the “activity change, positive = activation” value is inactive: -7.03%.

`N[C@@]1(C(=O)O)CS(=O)(=O)[C@H]2[C@H](C(=O)O)[C@H]21`: the “activity change, positive = activation” value is inactive: -31.2%.

With `COc1ccc(Cn2cc(C(=O)c3ccc(OC)cc3)c(=O)c3cc4c(cc32)OCCO4)cc1`, the “activity change, positive = activation” value was inactive: -4.3%.

With `CCC(=O)O[C@]1(C(=O)CO)CC[C@H]2[C@@H]3CCC4=CC(=O)CC[C@]4(C)[C@@H]3CC[C@@]21C`, the “activity change, positive = activation” value is inactive: 6.6%.

As to `COc1ccc(OC)c(NC(=O)c2cn3c4c(ccc(Cl)c4c2=O)OC(C)C3)c1` (configuration not stated), the “activity change, positive = activation” value is inactive: -8.41%.

As to `COc1ccc(CC(=O)NCc2ccc3c(c2)CCN3C(C)=O)cc1OC`, the “activity change, positive = activation” value is inactive: -16.9%.

Regarding `CCN(CC)S(=O)(=O)c1ccc2c(c1)c(=O)c(C(=O)NCc1ccc(Cl)cc1)cn2C`, the “activity change, positive = activation” value was inactive: -6.14%.

Regarding `CCOC(=O)C1CCN(C(=O)c2ccc3c(c2)sc2nc(-c4ccccc4)cn23)CC1`, the “activity change, positive = activation” value is inactive: -3.07%.

As for `COc1cccc(CNC(=O)C2Cc3cc(S(=O)(=O)N4CCCCCC4)ccc3N2C(C)=O)c1` (configuration not stated), the “activity change, positive = activation” value was inactive: 5.52%.

Take `Cc1c(C(=O)N(C)C)sc2c1c(=O)n(-c1ccc(F)cc1)c(=O)n2Cc1cc(=O)n2ccccc2n1`: the “activity change, positive = activation” value was inactive: -3.41%.

With `Nc1c(C(=O)Nc2ccc(Cl)c(C(F)(F)F)c2)sc2nc(-c3ccncc3)ccc12`, the “activity change, positive = activation” value is inactive: -32.4%.

Turning to `COc1ccc(C(=O)COC(=O)c2cc(-c3ccccc3)nc3c(C)cccc23)cc1`, the activity change, positive = activation was inactive: 0.391% [at 11.5 µM, percent change from vehicle, -100% = no light].

Take `O=C1CCc2cc(S(=O)(=O)NCc3ccc(F)cc3)cc3c2N1CC3`: the “activity change, positive = activation” value was inactive: -3.42%.

For the molecule `Cc1nc2c(-c3ccccc3)c(C)nn2c(C)c1CCC(=O)N1CCN(c2ccccc2)CC1`, the “activity change, positive = activation” value is inactive: -13.1%.

Turning to `CCC(=O)N1CCc2cc(Br)cc(S(=O)(=O)N3CCCC(C(=O)NCc4cccc(OC)c4)C3)c21` (configuration not stated), the “activity change, positive = activation” value is inactive: -16.9%.

As to `CC(=O)N1CCCc2ccc(NS(=O)(=O)c3ccc(C)c(C)c3)cc21`, the “activity change, positive = activation” value is inactive: 14%.
